Laboratory results published in the supplement of paper PMC4967469.
The IC50 comes from the fitted curve, where viability falls to half of the control; fits outside the tested doses are given as limits. For AUC the same curve is integrated over the 256-fold range of doses and scaled to a fraction; values near 1 show little effect. For part of these data: The top dose, if marked as inferred, comes from the curve model; the source does not state it.

Legend:
Assay in all cases: Viability of human cancer cell lines after 72 h of drug (GDSC screen)
17-AAG = compound: C=CCNC1=C2C[C@@H](C)C[C@H](OC)[C@H](O)[C@@H](C)/C=C(\C)[C@H](OC(N)=O)[C@@H](OC)/C=C\C=C(/C)C(=O)NC(=CC1=O)C2=O [17-AAG]; conditions: top dose 1 µM
Protocol: (§1)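 Human cancer cell lines in 384-well plates, medium with 10% serum, drug for 72 h over a 256-fold dose range (nine 2-fold or five 4-fold steps up to the top dose). Adherent lines were fixed and stained with the nucleic acid dye Syto60, suspension lines read with resazurin; signal relative to control wells, capped at 0 and 100%. One two-parameter sigmoid per drug and line, fitted in a mixed model over all curves with the slope shared within a line.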

CCT018159 = compound: CCc1cc(-c2n[nH]c(C)c2-c2ccc3c(c2)OCCO3)c(O)cc1O [CCT018159]; conditions: top dose 10 µM; top dose inferred
Protocol: as §1

BIX02189 = compound: CN(C)Cc1cccc(N=C(c2ccccc2)c2c(O)[nH]c3cc(C(=O)N(C)C)ccc23)c1 [BIX02189]; conditions: top dose 20 µM; top dose inferred
Protocol: as §1

Dimethyloxalylglycine = compound: COC(=O)CNC(=O)C(=O)OC [Dimethyloxalylglycine]; conditions: top dose 4000 µM; top dose inferred
Protocol: as §1

OSI-027 = compound: COc1cccc2cc(-c3nc([C@H]4CC[C@H](C(=O)O)CC4)n4ncnc(N)c34)[nH]c12 [OSI-027]; conditions: top dose 20 µM
Protocol: as §1

Vismodegib = compound: CS(=O)(=O)c1ccc(C(=O)Nc2ccc(Cl)c(-c3ccccn3)c2)c(Cl)c1 [Vismodegib]; conditions: top dose 10 µM; top dose inferred
Protocol: as §1

VX-11e = compound: Cc1cnc(Nc2ccc(F)cc2Cl)nc1-c1c[nH]c(C(=O)N[C@H](CO)c2cccc(Cl)c2)c1 [VX-11e]; conditions: top dose 5.12 µM; top dose inferred
Protocol: as §1

TG101348 = compound: Cc1cnc(Nc2ccc(OCCN3CCCC3)cc2)nc1Nc1cccc(S(=O)(=O)NC(C)(C)C)c1 [TG101348]; conditions: top dose 10.24 µM
Protocol: as §1

UNC1215 = compound: O=C(c1ccc(C(=O)N2CCC(N3CCCC3)CC2)c(Nc2ccccc2)c1)N1CCC(N2CCCC2)CC1 [UNC1215]; conditions: top dose 1 µM; top dose inferred
Protocol: as §1

Row | Cell Line | AUC (17-AAG) | AUC (CCT018159) | IC50 (CCT018159) [µM] | AUC (BIX02189) | IC50 (BIX02189) [µM] | AUC (Dimethyloxalylglycine) | IC50 (Dimethyloxalylglycine) [µM] | AUC (OSI-027) | IC50 (OSI-027) [µM] | AUC (Vismodegib) | IC50 (Vismodegib) [µM] | AUC (VX-11e) | IC50 (VX-11e) [µM] | AUC (TG101348) | IC50 (TG101348) [µM] | AUC (UNC1215) | IC50 (UNC1215) [µM] | IC50 (17-AAG) [µM]
1 | MIA-PaCa-2 (pancreas, adherent) | 0.239 | 0.805 | 5.65 | 0.985 | > 20 | 0.416 | 144 | 0.975 | > 20 | 0.931 | > 10 | 0.981 | > 5.12 | 0.977 | > 10.2 | 0.956 | > 1 | –
2 | DU-4475 (breast, suspension) | 0.717 | 0.936 | > 10 | 0.979 | > 20 | 0.718 | – | 0.649 | 2.96 | 0.986 | > 10 | 0.285 | 0.0908 | 0.863 | 6.33 | 0.989 | > 1 | 0.223
3 | UACC-257 (melanoma, adherent) | 0.796 | 0.972 | > 10 | 0.904 | > 20 | 0.694 | 1010 | 0.479 | 1.08 | 0.982 | > 10 | 0.766 | 2.35 | 0.914 | > 10.2 | 0.979 | > 1 | 0.606
4 | T47D (breast, adherent) | 0.954 | 0.909 | > 10 | 0.893 | > 20 | 0.915 | > 4000 | 0.217 | 0.114 | 0.973 | > 10 | 0.947 | > 5.12 | 0.824 | > 10.2 | 0.97 | > 1 | > 1
5 | 697 (lymphoblastic leukaemia, suspension) | 0.937 | 0.887 | 7.29 | 0.794 | 7.22 | 0.475 | 216 | 0.097 | 0.0915 | 0.962 | > 10 | 0.943 | > 5.12 | 0.318 | 0.224 | 0.99 | > 1 | > 1
6 | MOLT-4 (lymphoblastic leukaemia, suspension) | 0.954 | 0.854 | 5.68 | 0.834 | 9.77 | 0.671 | 677 | 0.514 | 1.36 | 0.975 | > 10 | 0.965 | > 5.12 | 0.758 | 2.95 | 0.985 | > 1 | > 1
7 | HCC2218 (breast, suspension) | 0.67 | 0.856 | > 10 | 0.955 | > 20 | 0.94 | > 4000 | 0.565 | 1.98 | 0.981 | > 10 | 0.972 | > 5.12 | 0.963 | > 10.2 | 0.947 | > 1 | 0.211
8 | HT (B-cell lymphoma, suspension) | 0.974 | 0.99 | > 10 | 0.959 | > 20 | 0.407 | 142 | 0.591 | 2.17 | 0.988 | > 10 | 0.982 | > 5.12 | 0.876 | 8.75 | 0.982 | > 1 | > 1
9 | BB49-HNC (head and neck, adherent) | 0.471 | 0.869 | > 10 | 0.968 | > 20 | 0.627 | 645 | 0.972 | > 20 | 0.973 | > 10 | 0.978 | > 5.12 | 0.916 | > 10.2 | 0.971 | > 1 | 0.0506
10 | T98G (glioma, adherent) | 0.468 | 0.888 | 9.8 | 0.956 | > 20 | 0.641 | 593 | 0.805 | 9.21 | 0.987 | > 10 | 0.986 | > 5.12 | 0.891 | > 10.2 | 0.966 | > 1 | 0.0516
11 | SF539 (glioma, adherent) | 0.454 | 0.897 | > 10 | 0.952 | > 20 | 0.543 | 324 | 0.472 | 1.05 | 0.971 | > 10 | 0.948 | > 5.12 | 0.845 | 6.31 | 0.972 | > 1 | 0.0475
12 | MDA-MB-361 (breast, adherent) | 0.381 | 0.915 | > 10 | 0.985 | > 20 | 0.767 | 1480 | 0.725 | 5.41 | 0.983 | > 10 | 0.98 | > 5.12 | 0.949 | > 10.2 | 0.987 | > 1 | 0.0295
13 | CAL-51 (breast, adherent) | 0.343 | 0.799 | 4.06 | 0.991 | > 20 | 0.479 | 221 | 0.87 | 14.6 | 0.952 | > 10 | 0.991 | > 5.12 | 0.942 | > 10.2 | 0.977 | > 1 | 0.0245
14 | SUP-M2 (anaplastic large cell lymphoma, suspension) | 0.816 | 0.847 | 4.88 | 0.994 | > 20 | 0.655 | 599 | 0.029 | < 0.0781 | 0.96 | > 10 | 0.968 | > 5.12 | 0.626 | 1.3 | 0.994 | > 1 | 0.396
15 | CAL-120 (breast, adherent) | 0.792 | 0.893 | > 10 | 0.864 | > 20 | 0.647 | 719 | 0.308 | 0.306 | 0.981 | > 10 | 0.968 | > 5.12 | 0.778 | 5.41 | 0.971 | > 1 | 0.603
16 | CFPAC-1 (pancreas, adherent) | 0.744 | 0.868 | > 10 | 0.97 | > 20 | 0.265 | 47.8 | 0.59 | 2.3 | 0.97 | > 10 | 0.928 | > 5.12 | 0.837 | 8.33 | 0.981 | > 1 | 0.352
17 | MDA-MB-231 (breast, adherent) | 0.979 | 0.75 | 3.44 | 0.985 | > 20 | 0.552 | 349 | 0.789 | 9.43 | 0.955 | > 10 | 0.985 | > 5.12 | 0.879 | > 10.2 | 0.985 | > 1 | > 1
18 | CAL-29 (bladder, adherent) | 0.374 | 0.898 | > 10 | 0.962 | > 20 | 0.274 | 53.7 | 0.565 | 1.91 | 0.968 | > 10 | 0.965 | > 5.12 | 0.936 | > 10.2 | 0.981 | > 1 | 0.0273
19 | HOP-62 (lung adenocarcinoma, adherent) | 0.6 | 0.911 | > 10 | 0.929 | > 20 | 0.429 | 160 | 0.584 | 2.12 | 0.986 | > 10 | 0.972 | > 5.12 | 0.858 | 8.37 | 0.984 | > 1 | 0.117
20 | L-540 (Hodgkin lymphoma, suspension) | 0.905 | 0.873 | 7.86 | 0.944 | > 20 | 0.505 | 257 | 0.291 | 0.348 | 0.981 | > 10 | 0.982 | > 5.12 | 0.773 | 3.54 | 0.989 | > 1 | > 1
21 | NCI-H23 (lung adenocarcinoma, adherent) | 0.419 | 0.866 | 8.8 | 0.984 | > 20 | 0.797 | 1860 | 0.905 | > 20 | 0.976 | > 10 | 0.928 | > 5.12 | 0.86 | 8.45 | 0.987 | > 1 | 0.0376
22 | HDQ-P1 (breast, adherent) | 0.82 | 0.905 | > 10 | 0.984 | > 20 | 0.628 | 605 | 0.832 | 16.4 | 0.984 | > 10 | 0.984 | > 5.12 | 0.965 | > 10.2 | 0.983 | > 1 | 0.725
23 | Ca9-22 (head and neck, adherent) | 0.858 | 0.808 | 4.73 | 0.949 | > 20 | 0.708 | 918 | 0.731 | 5.35 | 0.981 | > 10 | 0.93 | > 5.12 | 0.896 | > 10.2 | 0.987 | > 1 | 0.73
24 | SAS (head and neck, adherent) | 0.61 | 0.8 | 5.47 | 0.917 | > 20 | 0.553 | 355 | 0.616 | 2.71 | 0.948 | > 10 | 0.878 | > 5.12 | 0.82 | 6.76 | 0.982 | > 1 | 0.13
25 | COR-L279 (small cell lung carcinoma, suspension) | 0.988 | 0.962 | > 10 | 0.933 | > 20 | 0.835 | 2230 | 0.089 | < 0.0781 | 0.991 | > 10 | 0.991 | > 5.12 | 0.724 | 2.54 | 0.975 | > 1 | > 1
26 | SCC-9 (head and neck, adherent) | 0.647 | 0.865 | > 10 | 0.941 | > 20 | 0.384 | 109 | 0.305 | 0.301 | 0.981 | > 10 | 0.833 | 4.69 | 0.821 | 8.19 | 0.967 | > 1 | 0.179
27 | CAL-85-1 (breast, adherent) | 0.969 | 0.924 | > 10 | 0.961 | > 20 | 0.384 | – | 0.48 | 1.09 | 0.967 | > 10 | 0.795 | 3.16 | 0.801 | 6.69 | 0.977 | > 1 | > 1
28 | HT-1080 (fibrosarcoma, adherent) | 0.571 | 0.754 | 3.06 | 0.989 | > 20 | 0.578 | 399 | 0.808 | 9.09 | 0.959 | > 10 | 0.986 | > 5.12 | 0.963 | > 10.2 | 0.98 | > 1 | 0.0954
29 | LN-18 (glioma, adherent) | 0.617 | 0.929 | > 10 | 0.994 | > 20 | 0.699 | 795 | 0.96 | > 20 | 0.994 | > 10 | 0.994 | > 5.12 | 0.994 | > 10.2 | 0.993 | > 1 | 0.123
